The target of test [1] is T1, PREP activity in mouse brain (Mus musculus, UniProt Q9QUR6).
T1 construct: measuring PREP activity from mouse brain tissue lysates; from tissue; host or cells: mouse brain (C57BL/6JRccHsd mice)
The test is described as follows: PREP activity in mouse brain tissue lysates after i.p. administration. The note with it: 10 mg/kg i.p. The test is classed as in vivo.

The target of test [2] is T2, PREP activity in mouse liver (Mus musculus, UniProt Q9QUR6).
T2 construct: PREP activity was measured from mouse brain and liver tissue samples; from tissue; host or cells: mouse liver
In words: PREP activity in mouse liver after i.p. administration. It is filed as in vivo. Conditions: 10 mg/kg i.p., throughout the monitoring period.

With `Cc1nc(CCCc2ccccc2)oc1N1CCC[C@H]1C#N` [HUP-55, (S)-1-(4-Methyl-2-(3-phenylpropyl)oxazol-5-yl)pyrrolidine-2-carbonitrile], the “decrease of brain PREP activity compared to the DMSO control” value in test [1] (during the first 45 min) is listed as 50%. Also, the “brain PREP activity, % of the control” value in test [1] (end of the 3 h monitoring period) was 80%. Further, the “decrease of liver PREP activity” value in test [2] is “approximately 25%”.

For the origin of these results see publication PMC10258805, “Nonpeptidic Oxazole-Based Prolyl Oligopeptidase Ligands with Disease-Modifying Effects on α-Synuclein Mouse Models of Parkinson’s Disease” (Journal of Medicinal Chemistry, 2023).
